Reference: patent publication US20140308201A1 (Novartis, published 2014)

T1: Cynomolgus monkey FGFR2 IIIb D1-3 (cynomolgus monkey)
T1 construct: also called Cyno FGFR2 IIIb
T1 chain: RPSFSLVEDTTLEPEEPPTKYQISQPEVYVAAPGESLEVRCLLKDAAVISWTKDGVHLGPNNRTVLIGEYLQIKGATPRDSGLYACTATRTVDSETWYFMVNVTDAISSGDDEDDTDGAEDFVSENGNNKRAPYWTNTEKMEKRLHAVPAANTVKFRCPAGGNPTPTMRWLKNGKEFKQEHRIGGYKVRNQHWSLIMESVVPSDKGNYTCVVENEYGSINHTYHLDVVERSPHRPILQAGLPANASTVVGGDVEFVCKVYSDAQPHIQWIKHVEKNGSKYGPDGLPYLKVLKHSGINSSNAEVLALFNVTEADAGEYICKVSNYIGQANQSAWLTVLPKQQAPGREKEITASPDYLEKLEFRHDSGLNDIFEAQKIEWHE

T2: Human FGFR2 IIIb D1-3 (human)
T2 construct: Extracellular domains D1-3 with C-terminal tag, made in HEK293T; also called recombinant human FGFR2 IIIb; hFGFR2
T2 chain: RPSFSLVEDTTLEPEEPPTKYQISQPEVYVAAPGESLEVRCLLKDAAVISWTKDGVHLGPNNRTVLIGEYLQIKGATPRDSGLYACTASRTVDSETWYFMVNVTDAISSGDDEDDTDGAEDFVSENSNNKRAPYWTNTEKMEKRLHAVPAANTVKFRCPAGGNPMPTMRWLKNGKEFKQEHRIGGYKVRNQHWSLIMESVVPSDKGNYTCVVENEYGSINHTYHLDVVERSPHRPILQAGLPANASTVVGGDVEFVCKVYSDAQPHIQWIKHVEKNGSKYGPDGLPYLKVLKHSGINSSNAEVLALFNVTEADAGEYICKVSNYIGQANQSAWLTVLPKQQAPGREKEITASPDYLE


How the values were obtained:
[1] = biological target: T1, Cynomolgus monkey FGFR2 IIIb D1-3; test: SPR Biacore, method as Example 2
Human FGFR2 IIIb D1-3 = biological target: T2, Human FGFR2 IIIb D1-3; test: SPR Biacore, method as Example 2

Row | Binder | Kd [1] [nM] | Kd (Human FGFR2 IIIb D1-3) [nM]
1 | 10164-MCC-DM1 (other, DM1 linked through MCC (SMCC) linker to lysine residues, sites not given; DM1 linked through MCC (SMCC) linker to lysine residues, sites not given, MAR 3.5) heavy: QVQLVESGGGLVKPGGSLRLSCAASGFTFSSYALSWVRQAPGKGLEWVGRIRSKIDGGTTDYAAPVKGRFTISRDDSKNTLYLQMNSLKTEDTAVYYCARDRSPSDSSAFAIWGQGTLVTVSSASTKGPSVFPLAPSSKSTSGGTAALGCLVKDYFPEPVTVSWNSGALTSGVHTFPAVLQSSGLYSLSSVVTVPSSSLGTQTYICNVNHKPSNTKVDKRV[human IgG1 Fc cut from this listing] light: DIELTQPPSVSVSPGQTASITCSGDNLGSQYVDWYQQKPGQAPVLVIYDDNDRPSGIPERFSGSNSGNTATLTISGTQAEDEADYYCQSWDSLSVVFGGGTKLTVLGQPKAAPSVTLFPPSSEELQANKATLVCLISDFYPGAVTVAWKADSSPVKAGVETTTPSKQSNNKYAASSYLSLTPEQWKSHRSYSCQVTHEGSTVEKTVAPTECS | 3.8 | –
2 | 11725-MCC-DM1 (other, DM1 linked through MCC (SMCC) linker to lysine residues, sites not given; DM1 linked through MCC (SMCC) linker to lysine residues, sites not given, MAR 3.4, antibody drug conjugate of 11725) heavy: QVQLLESGGGLVQPGGSLRLSCAASGFTFNTYWLHWVRQAPGKGLEWVSVISSDSSSTYYADSVKGRFTISRDNSKNTLYLQMNSLRAEDTAVYYCARDSRLDYWGQGTLVTVSSASTKGPSVFPLAPSSKSTSGGTAALGCLVKDYFPEPVTVSWNSGALTSGVHTFPAVLQSSGLYSLSSVVTVPSSSLGTQTYICNVNHKPSNTKVDKRV[human IgG1 Fc cut from this listing] light: DIELTQPPSVSVSPGQTASITCSGDSIGDTYVDWYQQKPGQAPVLVIYDDIDRPSGIPERFSGSNSGNTATLTISGTQAEDEADYYCYVYAWTGTSNVFGGGTKLTVLGQPKAAPSVTLFPPSSEELQANKATLVCLISDFYPGAVTVAWKADSSPVKAGVETTTPSKQSNNKYAASSYLSLTPEQWKSHRSYSCQVTHEGSTVEKTVAPTECS | – | 2.9
